The text below walks through data of patent US20200362051A1 (CRESCENDO BIOLOGICS, published 2020).

Test [1] concerns the target T1, human PSMA expressed on cells (human, UniProt Q04609).
T1 construct: Type II membrane glycoprotein; also called CHO human PSMA; CHO PSMA
The test can be described thus: dual-binding cell ELISA: CHO-PSMA cells, bound construct detected with 1 nM CD137huFc and anti-huFc-HRP; average ± SD, n=3. As to the method: (§1) Dual target engagement of CD137 and PSMA by the bispecific molecules was assessed using an ELISA format and by flow cytometry with T cells. For ELISA, CHO-PSMA cells (20000/well) were seeded into 96 well plates (Greiner cat no. 353872) in Hams F12 supplemented with L-Glutamine+Blasticidin+Tetracycline and incubated at 37° C. with 5% CO₂ overnight. All subsequent steps were performed at room temperature and included washes with PBS between each step. Plates were blocked with PBS/0.1% BSA for 1 hour then serially diluted Humabody® VH were added and allowed to bind for 1 hour. Following removal of unbound VH, 1 nM CD137huFc (Acro Biosystems cat no. 41B-H5258) was added to the wells and incubated for 1 hour. A 1:3000 dilution of Anti-huFc-HRP (Jackson ImmunoResearch cat no. 109-035-098) was subsequently added for 1 hour and plates developed by addition of TMB. The reaction was stopped by addition of 0.5M sulphuric acid and plates read on BMG PheraStar at Absorbance 450 nm. […] Human CD8+ T cells pre-stimulated for 48 hours with PMA/ionomycin were washed with FACS buffer (PBS supplemented with 10% human serum and 0.05% sodium azide) by centrifugation. Serially diluted bispecific and trispecific Humabody VH construct were added to the cells for 1 hour on ice. Plates were washed with FACS buffer then detection mix containing 5 nM biotinylated-PSMA, 20 nM Streptavidin AlexaFluor488 and Live/Dead NearIR cell stain dilution added. Plates were incubated at 4° C. for 1 hour then washed twice with FACS buffer by centrifugation. Cells were fixed by addition 1× BD Cell fix solution, then washed twice with PBS by centrifugation and the cell pellets resuspended in PBS. Fluorescence was measured in the RL2-H channels (Live/Dead stain) and BL1-H channel (AlexaFluor488 stain) on the iQue Plus Screener (IntelliCyt). The bispecific and trispecific molecules were able to simultaneously bind human CD8+ T cells and PSMA protein.
For orientation: ELISA stands for enzyme-linked immunosorbent assay.

Test [2] concerns the target T2, human CD137-human Fc chimeric protein (Acro Biosystems cat no. 41B-H5258) (human, UniProt Q07011 24-186).
T2 construct: Bought protein; also called CD137-Fc tag protein; CD137huFc; not shown: human IgG1 Fc
The test can be described thus: dual binding cell based ELISA: serially diluted VH on plated CHO human PSMA cells, then 1 nM CD137huFc, detection with anti human Fc-HRP, absorbance 450 nm. As to the method: Association 1—Binding of the trispecific molecule to CD137Fc captured on protein G biosensors. Association 2—binding of Human serum Albumin, Association 3—Binding of PSMA in the presence of Human serum albumin to minimise HSA dissociation. […] Dual target engagement of CD137 and PSMA by the bispecific molecules was assessed using an ELISA format and by flow cytometry with T cells. For ELISA, CHO-PSMA cells (20000/well) were seeded into 96 well plates (Greiner cat no. 353872) in Hams F12 supplemented with L-Glutamine+Blasticidin+Tetracycline and incubated at 37° C. with 5% CO₂ overnight. All subsequent steps were performed at room temperature and included washes with PBS between each step. Plates were blocked with PBS/0.1% BSA for 1 hour then serially diluted Humabody® VH were added and allowed to bind for 1 hour. Following removal of unbound VH, 1 nM CD137huFc (Acro Biosystems cat no. 41B-H5258) was added to the wells and incubated for 1 hour. A 1:3000 dilution of Anti-huFc-HRP (Jackson ImmunoResearch cat no. 109-035-098) was subsequently added for 1 hour and plates developed by addition of TMB. The reaction was stopped by addition of 0.5M sulphuric acid and plates read on BMG PheraStar at Absorbance 450 nm. […] Fluorescence was measured in the RL2-H channels (Live/Dead stain) and BL1-H channel (AlexaFluor488 stain) on the iQue Plus Screener (IntelliCyt). […]

Test [3] concerns the target T3, human CD137 expressed on cells (human, UniProt Q07011 24-255).
T3 construct: Whole entry with its signal peptide; also called 4-1BB; TNFRS9
The test can be described thus: dual-binding flow cytometry: pre-stimulated human CD8+ T cells, bound construct detected with 5 nM biotinylated-PSMA and streptavidin-AlexaFluor488; average ± SD, at least 6 donors. As to the method: as §1, with “Serially diluted bispecific and trispecific Humabody VH construct were added to the cells for 1 hour on ice. Plates were washed with FACS buffer then detection mix containing 5 nM biotinylated-PSMA, 20 nM Streptavidin AlexaFluor488 and Live/Dead NearIR cell stain dilution added. Plates were incubated at 4° C. for 1 hour then washed twice with FACS buffer by centrifugation. Cells were fixed by addition 1× BD Cell fix solution, then washed twice with PBS by centrifugation and the cell pellets resuspended in PBS.” left out, “The bispecific and trispecific molecules were able to simultaneously bind human CD8+ T cells and PSMA protein.” left out
A general note: In flow cytometry, cells or beads pass a laser one at a time.

T1 sequence (Q04609 whole entry): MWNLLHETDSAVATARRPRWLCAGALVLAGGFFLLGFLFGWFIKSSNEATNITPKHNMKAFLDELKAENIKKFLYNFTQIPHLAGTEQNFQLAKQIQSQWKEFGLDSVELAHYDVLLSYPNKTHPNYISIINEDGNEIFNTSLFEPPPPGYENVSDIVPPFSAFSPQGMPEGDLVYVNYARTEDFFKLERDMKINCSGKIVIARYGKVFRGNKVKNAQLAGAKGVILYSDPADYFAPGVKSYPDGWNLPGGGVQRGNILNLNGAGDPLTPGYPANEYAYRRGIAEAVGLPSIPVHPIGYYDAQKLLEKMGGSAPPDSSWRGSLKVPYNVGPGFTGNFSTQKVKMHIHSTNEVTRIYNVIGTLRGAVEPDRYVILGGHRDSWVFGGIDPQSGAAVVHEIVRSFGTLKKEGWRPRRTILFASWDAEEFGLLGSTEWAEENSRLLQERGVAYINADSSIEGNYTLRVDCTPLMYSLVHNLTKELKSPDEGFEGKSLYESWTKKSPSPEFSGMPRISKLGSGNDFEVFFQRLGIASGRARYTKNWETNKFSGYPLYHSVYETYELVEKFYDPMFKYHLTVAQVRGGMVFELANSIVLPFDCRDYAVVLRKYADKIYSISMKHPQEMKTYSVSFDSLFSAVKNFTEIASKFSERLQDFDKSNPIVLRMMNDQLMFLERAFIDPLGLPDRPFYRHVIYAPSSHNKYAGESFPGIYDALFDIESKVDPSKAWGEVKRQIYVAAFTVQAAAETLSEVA

B1: 3.8-6GS-1.113-6GS-VH HSA 4GS (bispecific antibody)
chain: EVQLLESGGGLVQPGGSLRLSCAASGFSFSSYALSWVRQAPGKGLEWVSSIGENDGTTDYAD[not shown - about 20 residues]MNSLRVEDTAVYYCVKDGVHWGQGTLVTVSSGGGGSGGGGSGGGGSGGGGSGGGGSGGGGSEVQLVESGGGLVQPGGSLRLSCAASGFTLSNYWMNWVRQAPGKGLEWVANINQDGSERYYVDSVKGRFTISRDNAKNSLYLQMNSLRAEDTAVYYCARGGEGYGVDHYGLDVSGQGTTVTVSSGGGGSGGGGSGGGGSGGGGSGGGGSGGGGSEVQLVESGGGLVQPGRSLRLSCAASGFTFHHYAMHWVRQAPGKGLEWVSGISWNGNKITYADSVKGRFTISRDNAKNSLYLQMNSLRAEDTALYYCVRDSSLFIVGAPTFEHWGRGTLVTVSSGGGGSGGGGSGGGGSGGGGS
notes: Trispecific single-chain fusion of three VH domains (PSMA, CD137, human serum albumin)
Take B1: in test [1], the EC50 (as a rule, the midpoint of the concentration-response curve) stood at 1.6 nM.

B2: Humabody VH 3.8 (VHH)
VHH: EVQLLESGGGLVQPGGSLRLSCAASGFSFSSYALSWVRQAPGKGLEWVSSIGENDGTTDYAD[not shown - about 20 residues]MNSLRVEDTAVYYCVKDGVHWGQGTLVTVSS
For B2, the binding result in test [2] is listed as “no binding (tested: 1e-7 M (log10 -7))”.

B3: 3.8-6GS-VH HSA-6GS-1.113-4GS (bispecific antibody)
chain: EVQLLESGGGLVQPGGSLRLSCAASGFSFSSYALSWVRQAPGKGLEWVSSIGENDGTTDYAD[not shown - about 20 residues]MNSLRVEDTAVYYCVKDGVHWGQGTLVTVSSGGGGSGGGGSGGGGSGGGGSGGGGSGGGGSEVQLVESGGGLVQPGRSLRLSCAASGFTFHHYAMHWVRQAPGKGLEWVSGISWNGNKITYADSVKGRFTISRDNAKNSLYLQMNSLRAEDTALYYCVRDSSLFIVGAPTFEHWGRGTLVTVSSGGGGSGGGGSGGGGSGGGGSGGGGSGGGGSEVQLVESGGGLVQPGGSLRLSCAASGFTLSNYWMNWVRQAPGKGLEWVANINQDGSERYYVDSVKGRFTISRDNAKNSLYLQMNSLRAEDTAVYYCARGGEGYGVDHYGLDVSGQGTTVTVSSGGGGSGGGGSGGGGSGGGGS
notes: Trispecific single-chain fusion of three VH domains (PSMA, human serum albumin, CD137)
The molecule B3 had an EC50 in test [1] of 2.5 nM.

B4: 3.8-6GS-1.113 (bispecific antibody)
chain: EVQLLESGGGLVQPGGSLRLSCAASGFSFSSYALSWVRQAPGKGLEWVSSIGENDGTTDYAD[not shown - about 20 residues]MNSLRVEDTAVYYCVKDGVHWGQGTLVTVSSGGGGSGGGGSGGGGSGGGGSGGGGSGGGGSEVQLVESGGGLVQPGGSLRLSCAASGFTLSNYWMNWVRQAPGKGLEWVANINQDGSERYYVDSVKGRFTISRDNAKNSLYLQMNSLRAEDTAVYYCARGGEGYGVDHYGLDVSGQGTTVTVSS
notes: the tested construct may be that one
With B4, the EC50 is 1.3 nM in test [1] and 0.87 nM in test [3].
